Assay results reported in PubChem BioAssay AID1030 (National Center for Advancing Translational Sciences (NCATS), 2008).
Hit rate of the full screen: of about 220,000 compounds, about 16,000 (7.3%) were called active. This list was built around the results that the source calls inconclusive (neither active nor inactive); the mix of calls is not that of the screen. The call rests on the fitted dose curve; in most records, active means well fitted inhibition curve with a large enough effect (not every such curve was filed as active); inconclusive means small, poorly fitted or top-dose-only effect, or another doubt; inactive means no such curve, though single readings can be large or run the other way. Potencies of inconclusive entries are doubtful fits and often do not repeat.

target: Aldehyde dehydrogenase 1A1 (Homo sapiens) (UniProt P00352); test: qHTS Assay for Inhibitors of Aldehyde Dehydrogenase 1 (ALDH1A1); settings: Purified ALDH1A1, NADH fluorescence, propionaldehyde substrate; series mostly up to 75.3 µM
Potency means the concentration at half of the fitted maximal effect; tags describe the fitted curve by direction and shape.

Chain of UniProt P00352 (P00352 whole entry, looked up): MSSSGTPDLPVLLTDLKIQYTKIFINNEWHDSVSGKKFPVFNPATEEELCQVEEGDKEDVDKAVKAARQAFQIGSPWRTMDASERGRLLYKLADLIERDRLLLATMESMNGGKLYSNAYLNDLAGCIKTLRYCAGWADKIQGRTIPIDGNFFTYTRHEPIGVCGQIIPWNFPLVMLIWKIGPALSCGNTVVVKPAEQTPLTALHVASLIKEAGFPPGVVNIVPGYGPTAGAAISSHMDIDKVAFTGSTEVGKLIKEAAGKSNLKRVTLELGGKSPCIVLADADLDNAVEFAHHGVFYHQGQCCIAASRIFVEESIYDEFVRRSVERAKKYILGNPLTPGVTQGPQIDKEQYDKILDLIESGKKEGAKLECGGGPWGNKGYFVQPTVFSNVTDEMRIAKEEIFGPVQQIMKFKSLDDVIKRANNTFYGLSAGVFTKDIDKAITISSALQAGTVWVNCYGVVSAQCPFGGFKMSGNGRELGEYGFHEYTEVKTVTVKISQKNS

Potency, inactive:
CNC1C(O)C2OC3OC(C)CC(=O)[C@@]3(O)O[C@H]2[C@H](NC)C1O (some centres not stated)
CNC(=O)COc1ncnc2sccc12
Cc1cc(SCC(=O)OCC(=O)NCC2CCCO2)c(C)cc1Br (configuration not stated)
CC(C)(C)C1CCC(OC(=O)C[N+]2(C)CCCC2)CC1 (configuration not stated)
CCCCOC(=O)Nc1cccc(Cl)c1C
O=C1CC(N2CCN(c3ncccn3)CC2)C(=O)N1CCc1ccccc1 (configuration not stated)
Cc1ccc(-c2noc(=O)n2CC(=O)c2ccc(Cl)cc2)cc1
Cc1cc(=O)[nH]c(SCC(=O)Nc2nnc(CC(C)C)s2)n1
COC(=O)c1[nH]c2ccccc2c1NC(=O)C(C)N1CCN(C(=O)c2ccco2)CC1 (configuration not stated)
COc1ccc(C(=O)N2CCC3(CCCN(Cc4ccncc4)C3)CC2)cc1
COc1ccc(/C=N/NC(=O)CNc2ccc(Br)cc2)c(C(=O)O)c1OC
CCCCC1=CC2=CC(=O)C(C)(OC(=O)c3ccc(Cl)nc3)C(=O)C2=CO1 (configuration not stated)

Potency, inconclusive:
O=S(=O)(c1cccc(S(=O)(=O)N2CCCC2)c1)c1cccc(S(=O)(=O)N2CCCC2)c1 28.2 µM [inhibitor, single point]
Cc1ccc(S(=O)(=O)Nc2ccc3oc(=O)sc3c2)c(C)c1 5.01 µM [inhibitor, partial curve]
C=CCN(CC=C)C(=O)c1cc2ccccc2c(=O)o1 22.4 µM [inhibitor, single point]
COc1cccc(-c2cc3c(=O)n(-c4ccccc4)c(=S)[nH]c3s2)c1 35.5 µM [inhibitor, single point]
Cc1ccc2ccc(C(Nc3cccc(C(F)(F)F)c3)c3cccnc3)c(O)c2n1 (configuration not stated) 37.7 µM [inhibitor, single point]
CCCCOC(=O)CSc1nnc(-c2ccc(Cl)cc2Cl)o1 22.4 µM [inhibitor, partial curve]
CCn1c(=O)cc(C(F)(F)F)[nH]c1=S 35.5 µM [inhibitor, single point]
Cc1ccc(S(=O)(=O)NCCC(=O)Nc2nnc(C)s2)cc1 39.8 µM [inhibitor, single point]
CN(CC(=O)Nc1ccc(S(=O)(=O)N(C)C)cc1)Cc1ccc(C(F)(F)F)cc1 39.8 µM [inhibitor, single point]
CN(C)/C=N/c1c(C#N)nnn1Cc1ccccc1 20 µM [inhibitor, single point]
Cc1ccc(Cn2cccc(NC(=O)NCc3ccccc3)c2=O)cc1 39.8 µM [inhibitor, single point]
O=C(CSc1nnc(-c2cccs2)n1Cc1ccco1)c1ccc2c(c1)OCO2 31.6 µM [inhibitor, single point]
O=C(Nc1ccccc1Cl)ON=C1c2ccccc2-c2ccccc21 5.62 µM [inhibitor, full curve, poor fit]
Cn1c(=O)n(C)c2cc(S(=O)(=O)NCCc3ccccc3)ccc21 39.8 µM [inhibitor, single point]
Cc1cc(C)n2c(SCC(=O)N3CCN(S(=O)(=O)c4ccc(Cl)cc4)CC3)nnc2n1 20 µM [inhibitor, partial curve]
CC(=O)N1N=C(c2ccncc2)OC12CCCCCC2 28.2 µM [inhibitor, partial curve]
CCNC(=S)NNC(=O)c1csc(C(C)C)c1 37.7 µM [inhibitor, partial curve, poor fit]
CC(C)CCn1c(=O)c2ccccc2n2c(COC(=O)c3ccc(S(=O)(=O)N(C)C)cc3)nnc12 39.8 µM [inhibitor, single point]
COc1ccc(Oc2ncc3nc(-c4cc(F)cc(F)c4)c(=O)n(C4CC4)c3n2)cc1 28.2 µM [inhibitor, partial curve]
COc1ccc2[nH]c3c(NCCCN4CCCC4=O)ncnc3c2c1 23.8 µM [inhibitor, partial curve]
CCOC(=O)C1CCN(Cc2ccc(Cl)c(Cl)c2)CC1 22.4 µM [inhibitor, partial curve]
CCOC(=O)N1CCN(Cc2nc(N)nc(Nc3ccc(OCC)cc3)n2)CC1 20 µM [inhibitor, single point]
Cc1ccn2c(NC3CCCCC3)c(C)nc2c1 39.8 µM [inhibitor, single point]
CC(C)c1cc(NCc2ccccn2)n2c(nc3ccccc32)c1C#N 22.4 µM [inhibitor, partial curve]
CNC(=O)c1ccsc1NC(=O)c1ccc(S(=O)(=O)N2CCCc3ccccc32)cc1 11.2 µM [inhibitor, partial curve]
CC(C)(C)NC(=O)C1N(c2cccnc2)C(=O)C2C(C(=O)Nc3ccccc3F)C3(C)C=CC21O3 (configuration not stated) 35.5 µM [inhibitor, single point]
c1coc(-c2nnc(-c3ccc4c(c3)OCO4)o2)c1 31.6 µM [inhibitor, partial curve]

Potency, active:
O=C(c1cc(-c2ccco2)nn1-c1cccc(Cl)c1)N1CCCCC1 3.55 µM
N#Cc1c(Cl)nc(SCc2ccccc2)nc1-c1ccccc1 31.6 µM
COc1ccc(S(=O)(=O)N2CCN(C(=O)c3c(C)nn(-c4ccccc4)c3Cl)CC2)cc1 31.6 µM
Cn1ccc(=S)c2ccccc21 7.08 µM
COc1ccc(NC(=O)c2oc3ccc(S(=O)(=O)N4CCC5(CC4)OCCO5)cc3c2C)cc1 22.4 µM
CCC(CO)NCc1sccc1C (configuration not stated) 20 µM
CN(C)c1ccc(CN(C(=O)C2COc3ccccc3O2)C2CCS(=O)(=O)C2)cc1 (configuration not stated) 4.47 µM
O=C(Cc1ccccc1)NC(=S)Nc1ccc2oc(-c3ccccc3)nc2c1 22.4 µM
